According to patent US20210154280A1, “NEO-EPITOPE VACCINES AND METHODS OF TREATING CANCER” (Epivax Oncology, Inc., priority 2019, published 2021):

Test system: CT26 tumor cells
Experiment: CT26 tumor growth and survival after vaccination (Example 1)
Settings: CT26-bearing Balb/c mice; sc injections at days 5, 8, 12, 15, 19, 22, 26
Protocol: The effectiveness of the ANCER™-designed CT26 vaccine was tested in Balb/c mice. Mice were separated into three groups: 1) PBS control; 2) poly-ICLC (vehicle); 3) ANCER™-selected CT26 Neoantigen Peptides+poly-ICLC. • Group 1: PBS, sc injections at days 5, 8, 12, 15, 19, 22, and 26. • Group 2: poly-ICLC, 50 μg, sc injections at days 5, 8, 12, 15, 19, 22, and 26. • Group 3: 5 μg/ANCER™-selected CT26 Neoantigen Peptide (100 μg total ANCER™-selected CT26 Neoantigen Peptides)+50 μg poly-ICLC, sc injections at days 5, 8, 12, 15, 19, 22, and 26.
All mice (N=10 mice per group) were injected 3*10^5 CT26 tumor cells in 0% Matrigel at day 0. Mice were sacrificed once the tumor volume reached 2,000 mm^3 or at day 45, whichever came first.

For poly-ICLC, the “tumor burden compared to Group 1 (mice immunized with PBS)” value was “no reduction in tumor burden”.
